# Measured values reported in the supplement of paper PMC10037445.
# Where “and” joins values, the source holds several entries; their conditions need not be identical. Equal entries are not always repeated. Whole data set: some 2,900 compounds, median “IRF Lucia reporter activity, fold change vs agonist alone” near 0.9, cut for the highest 2% near 2.8. This is one part of the list.
# Columns and labels:
# RAW-Dual [1] = experiment: IRF Lucia reporter activity, fold change vs agonist alone; cytotoxicity flag (confluency mask): cytotoxic (confluency <70% of control); higher = enhanced IRF activity
# Summary of the method: (§1)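 Library stock was pin-tooled at 50 nL into 384-well plates of RAW-Dual macrophages (50,000 cells/well, DMEM), followed 1 h later by a PRR agonist, and the cells were kept at 37 °C, 5% CO2. Supernatant collected after 20 hours was read for IRF by QuantiLuc luminescence and for NF-κB by QuantiBlue absorbance at 620 nm. Reporter activity is fold change over agonist-alone wells, and a well counted as cytotoxic when its IncuCyte confluency was below 70% of agonist controls in both mask sets.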
# RAW-Dual [2] = experiment: IRF Lucia reporter activity, fold change vs agonist alone; higher = enhanced IRF activity; settings: library stock concentration (final ~1000-fold dilution): 10 mM, agonist: MPLA (TLR4) […]
# Summary of the method: as §1
# RAW-Dual [3] = experiment: IRF Lucia reporter activity, fold change vs agonist alone; cytotoxicity flag (confluency mask): not cytotoxic; higher = enhanced IRF activity
# Summary of the method: as §1
# [4] = agonist: 3'3'-cGAMP (STING) 10 ug/mL
# [5] = cytotoxicity flag (confluency mask): cytotoxic (confluency <70% of control)
# [6] = cytotoxicity flag (confluency mask): not cytotoxic
smiles,measurement,setting,value
CC1CC(OC(=O)C(O)c2ccccc2)CC(C)(C)C1 (stereo not given) (library stock concentration (final ~1000-fold dilution): 10 mM),IRF Lucia reporter activity,RAW-Dual [1]; [4],1.15
same,IRF Lucia reporter activity,RAW-Dual [1]; agonist: LPS (TLR4) 0.1 ug/mL,1.04
CC1CC(OC(=O)C(O)c2ccccc2)CC(C)(C)C1 (stereo not given),IRF Lucia reporter activity,RAW-Dual [2]; [5],1.46
CN1CCC(c2c(O)cc(O)c3c(=O)cc(-c4ccccc4Cl)oc23)C(O)C1.Cl (stereo not given),IRF Lucia reporter activity,RAW-Dual [2]; [6],0.577
CN1CCC(c2c(O)cc(O)c3c(=O)cc(-c4ccccc4Cl)oc23)C(O)C1.Cl (stereo not given) (library stock concentration (final ~1000-fold dilution): 10 mM),IRF Lucia reporter activity,RAW-Dual [3]; [4],0.986
same,IRF Lucia reporter activity,RAW-Dual [3]; agonist: LPS (TLR4) 0.1 ug/mL,0.0173
COc1ccc(CNc2nc(N3CCCC3CO)ncc2C(=O)NCc2ncccn2)cc1Cl (stereo not given) (library stock concentration (final ~1000-fold dilution): 10 mM),IRF Lucia reporter activity,RAW-Dual [3]; [4],1.08
same,IRF Lucia reporter activity,RAW-Dual [3]; agonist: LPS (TLR4) 0.1 ug/mL,1.24
COc1ccc(CNc2nc(N3CCCC3CO)ncc2C(=O)NCc2ncccn2)cc1Cl (stereo not given),IRF Lucia reporter activity,RAW-Dual [2]; [6],1.26
O=C(O)c1cccnc1Nc1cccc(C(F)(F)F)c1,IRF Lucia reporter activity,RAW-Dual [2]; [6],1.06
O=C(O)c1cccnc1Nc1cccc(C(F)(F)F)c1 (library stock concentration (final ~1000-fold dilution): 10 mM),IRF Lucia reporter activity,RAW-Dual [3]; [4],1.08
same,IRF Lucia reporter activity,RAW-Dual [3]; agonist: LPS (TLR4) 0.1 ug/mL,0.998
Cc1oncc1C(=O)Nc1ccc(C(F)(F)F)cc1,IRF Lucia reporter activity,RAW-Dual [2]; [6],1.62
Cc1oncc1C(=O)Nc1ccc(C(F)(F)F)cc1 (library stock concentration (final ~1000-fold dilution): 10 mM),IRF Lucia reporter activity,RAW-Dual [3]; [4],1.08
same,IRF Lucia reporter activity,RAW-Dual [3]; agonist: LPS (TLR4) 0.1 ug/mL,1.39
CCn1c2ccccc2c2cc(Nc3ccnc(NCCCN4CCOCC4)n3)ccc21 (library stock concentration (final ~1000-fold dilution): 10 mM),IRF Lucia reporter activity,RAW-Dual [1]; [4],0.0499
same,IRF Lucia reporter activity,RAW-Dual [1]; agonist: LPS (TLR4) 0.1 ug/mL,0.123
CCn1c2ccccc2c2cc(Nc3ccnc(NCCCN4CCOCC4)n3)ccc21,IRF Lucia reporter activity,RAW-Dual [2]; [5],0.0354
COC1CC2CCC(C)C(O)(O2)C(=O)C(=O)N2CCCCC2C(=O)OC(C(C)CC2CCC(n3cnnn3)C(OC)C2)CC(=O)C(C)C=C(C)C(O)C(OC)C(=O)C(C)CC(C)C=CC=CC=C1C (stereo not given) (library stock concentration (final ~1000-fold dilution): 10 mM),IRF Lucia reporter activity,RAW-Dual [3]; [4],0.943
same,IRF Lucia reporter activity,RAW-Dual [3]; agonist: LPS (TLR4) 0.1 ug/mL,0.694
COC1CC2CCC(C)C(O)(O2)C(=O)C(=O)N2CCCCC2C(=O)OC(C(C)CC2CCC(n3cnnn3)C(OC)C2)CC(=O)C(C)C=C(C)C(O)C(OC)C(=O)C(C)CC(C)C=CC=CC=C1C (stereo not given),IRF Lucia reporter activity,RAW-Dual [2]; [6],0.832
CC(C)c1ccc2oc3nc(N)c(C(=O)O)cc3c(=O)c2c1,IRF Lucia reporter activity,RAW-Dual [2]; [6],0.979
CC(C)c1ccc2oc3nc(N)c(C(=O)O)cc3c(=O)c2c1 (library stock concentration (final ~1000-fold dilution): 10 mM),IRF Lucia reporter activity,RAW-Dual [3]; [4],0.938 and 0.336
same,IRF Lucia reporter activity,RAW-Dual [3]; agonist: LPS (TLR4) 0.1 ug/mL,0.94 and 0.52
Cc1c(NC(=O)c2cc(C(N)=O)nc3cc(F)ccc23)c(C(F)(F)F)nn1Cc1ccc(C#N)cc1 (library stock concentration (final ~1000-fold dilution): 10 mM),IRF Lucia reporter activity,RAW-Dual [3]; [4],0.754
same,IRF Lucia reporter activity,RAW-Dual [3]; agonist: LPS (TLR4) 0.1 ug/mL,1.2
CN(C)CCC(c1ccccc1)c1ccccn1.O=C(O)/C=C\C(=O)O (stereo not given) (library stock concentration (final ~1000-fold dilution): 10 mM),IRF Lucia reporter activity,RAW-Dual [3]; [4],1.11
same,IRF Lucia reporter activity,RAW-Dual [3]; agonist: LPS (TLR4) 0.1 ug/mL,1.34
CN(C)CCC(c1ccccc1)c1ccccn1.O=C(O)/C=C\C(=O)O (stereo not given),IRF Lucia reporter activity,RAW-Dual [2]; [6],1.17
Nc1nc(=O)n(C2CSC(CO)O2)cc1F (stereo not given),IRF Lucia reporter activity,RAW-Dual [2]; [6],1.01
Nc1nc(=O)n(C2CSC(CO)O2)cc1F (stereo not given) (library stock concentration (final ~1000-fold dilution): 10 mM),IRF Lucia reporter activity,RAW-Dual [3]; [4],1.04
same,IRF Lucia reporter activity,RAW-Dual [3]; agonist: LPS (TLR4) 0.1 ug/mL,0.992
Cc1ccc(NS(=O)(=O)c2ccc3c(c2)C2C=CCC2C(c2ccc(C(=O)O)cc2)N3)cc1C (stereo not given) (library stock concentration (final ~1000-fold dilution): 10 mM),IRF Lucia reporter activity,RAW-Dual [3]; [4],0.408
same,IRF Lucia reporter activity,RAW-Dual [3]; agonist: LPS (TLR4) 0.1 ug/mL,0.462
O=c1cc(-c2ccc(O)cc2)oc2cc(O)c([C@@H]3O[C@H](CO)[C@@H](O)[C@H](O)[C@H]3O)c(O)c12 (library stock concentration (final ~1000-fold dilution): 10 mM),IRF Lucia reporter activity,RAW-Dual [3]; [4],0.797
same,IRF Lucia reporter activity,RAW-Dual [3]; agonist: LPS (TLR4) 0.1 ug/mL,1.06
Cc1cc2c(cc1S(N)(=O)=O)S(=O)(=O)CCC2 (library stock concentration (final ~1000-fold dilution): 10 mM),IRF Lucia reporter activity,RAW-Dual [3]; [4],1.08
same,IRF Lucia reporter activity,RAW-Dual [3]; agonist: LPS (TLR4) 0.1 ug/mL,1.01
Cc1cc2c(cc1S(N)(=O)=O)S(=O)(=O)CCC2,IRF Lucia reporter activity,RAW-Dual [2]; [6],1.1
COc1cc(-c2cn(C)c(=O)c3cnccc23)c(OC)cc1CN(C)C (library stock concentration (final ~1000-fold dilution): 2 mM),IRF Lucia reporter activity,RAW-Dual [3]; [4],1.05
same,IRF Lucia reporter activity,RAW-Dual [3]; agonist: LPS (TLR4) 0.1 ug/mL,0.827
Cc1cc(C(=O)NOCCO)c(Nc2ccc(I)cc2F)n(C)c1=O (library stock concentration (final ~1000-fold dilution): 10 mM),IRF Lucia reporter activity,RAW-Dual [3]; [4],0.824
same,IRF Lucia reporter activity,RAW-Dual [3]; agonist: LPS (TLR4) 0.1 ug/mL,2.13
Cc1cc(C(=O)NOCCO)c(Nc2ccc(I)cc2F)n(C)c1=O,IRF Lucia reporter activity,RAW-Dual [2]; [6],2.81
Cc1nc(Nc2cnn(C3CCNCC3)c2)nc2c1N(C)C(=O)c1cc3ccccc3cc1N2C,IRF Lucia reporter activity,RAW-Dual [2]; [5],3.71
